Several values for one entry are separate records, joined by “and”; a condition that tells them apart may be missing. Identical values can stand only once. Counter-ions that a name gives are not always drawn. Among all 5,800 compounds or so, about 620 (11%) showed activity.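 The calls were made as follows: active = score above a cut-off or among the top three wells of a plate; in these data no inactive exceeds 0.85.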 This is a selection; strong and weak results do not stand in their true shares.
System: primary human hepatic stellate cells (donor 1)
Test: scaled lipid accumulation score (0 = DMSO-like, 1 = nortriptyline-like); higher = stronger HSC inactivation (lipid re-accumulation), active = hit call of the paper
Settings: 48 h
[1] = library stock concentration: 3.33 mM
[2] = library stock concentration: 10 mM
[3] = library stock concentration: 3.1 mM

O=C(NCC1CCOCC1)c1cnc(Nc2ccc(Cl)cc2Cl)nc1C(F)(F)F
scaled lipid accumulation score [1]: inactive: ≤ 0
scaled lipid accumulation score [2]: inactive: ≤ 0

CN1CCc2cccc(Cl)c2CC1
scaled lipid accumulation score [2]: inactive: ≤ 0

COc1c2c(cc3c1OCO3)CCN(C)C2 [Hydrocotarnine hydrobromide]
scaled lipid accumulation score: inactive: ≤ 0

CC(N)Cc1cnc[nH]1 (configuration not stated)
scaled lipid accumulation score [2]: inactive: 0.028

O=C1Nc2ccccc2C2(CCN(CCc3ccc(C(F)(F)F)cc3)CC2)O1
scaled lipid accumulation score [2]: inactive: 0.552

NC(CCCCCP(=O)(O)O)C(=O)O (configuration not stated) [(?)-2-Amino-7-phosphonoheptanoic acid]
scaled lipid accumulation score [2]: inactive: ≤ 0

NCC(O)c1ccc(O)cc1 (configuration not stated) [(?)-Octopamine hydrochloride]
scaled lipid accumulation score [2]: inactive: ≤ -0.02

NCC(O)c1ccc(O)cc1 (configuration not stated) [Octopamine hydrochloride]
scaled lipid accumulation score [2]: inactive: ≤ 0 and inactive: 0.024

CN1CCCCC1Cn1cc(C(=O)c2cc([N+](=O)[O-])ccc2I)c2ccccc21 (configuration not stated)
scaled lipid accumulation score (library stock concentration: 1 mM): inactive: ≤ 0
scaled lipid accumulation score [1]: inactive: 0.078
scaled lipid accumulation score [2]: inactive: 0.822

O=c1ccc2cc(O[C@@H]3O[C@H](CO)[C@@H](O)[C@H](O)[C@H]3O)c(O)cc2o1 [Esculin]
scaled lipid accumulation score [1]: inactive: ≤ 0
scaled lipid accumulation score [2]: inactive: 0.028

O=c1ccc2cc(O[C@@H]3O[C@H](CO)[C@@H](O)[C@H](O)[C@H]3O)c(O)cc2o1 [Aesculin]
scaled lipid accumulation score [2]: inactive: ≤ 0

O=c1ccc2cc(O[C@@H]3O[C@H](CO)[C@@H](O)[C@H](O)[C@H]3O)c(O)cc2o1 [Esculin Hydrate]
scaled lipid accumulation score: inactive: ≤ 0

O=[N+]([O-])/C=C/c1ccc2c(c1)OCO2
scaled lipid accumulation score [2]: active: 0.967

CC(C)NC(C)Cc1ccc(I)cc1 (configuration not stated) [Iofetamine hydrochloride]
scaled lipid accumulation score [2]: inactive: 0.757

Cc1ccc(/N=C/N(C)/C=N/c2ccc(C)cc2C)c(C)c1 [Amitraz]
scaled lipid accumulation score (library stock concentration: 6.8 mM): inactive: ≤ 0
scaled lipid accumulation score [2]: inactive: ≤ -0.027

CCCN(CCC)C1Cc2cc(OC)c(OC)cc2C1
scaled lipid accumulation score [2]: inactive: ≤ 0 and inactive: ≤ -0.006

c1ccc2c(c1)Nc1ccccc1S2
scaled lipid accumulation score [2]: inactive: ≤ 0

c1ccc2c(c1)Nc1ccccc1S2 [Phenothiazine]
scaled lipid accumulation score [1]: inactive: ≤ 0
scaled lipid accumulation score [2]: inactive: 0.074

C[C@]12CC[C@H]3[C@@H](CCC4=CC(=O)CC[C@@]43C)[C@@H]1CC[C@@H]2O [Testosterone]
scaled lipid accumulation score (library stock concentration: 6.9 mM): inactive: 0.032
scaled lipid accumulation score [2]: inactive: 0.108 and inactive: 0.479

N=C(NCCC[C@H](N)C(=O)O)N[N+](=O)[O-] [NG-Nitro-L-arginine]
scaled lipid accumulation score [2]: inactive: ≤ -0.055

N=C(NCCC[C@H](N)C(=O)O)N[N+](=O)[O-] [N (g)-nitro-l-arginine]
scaled lipid accumulation score [2]: inactive: ≤ 0

c1ccc(CC(c2ccccc2)N2CCCCC2)cc1 (configuration not stated) [(?)-1-(1,2-Diphenylethyl)piperidine maleate]
scaled lipid accumulation score [2]: inactive: 0.27

C[C@]12CCC(=O)C(O)=C1CC[C@@H]1[C@@H]2CC[C@]2(C)C(=O)CC[C@@H]12 [Formestane]
scaled lipid accumulation score [1]: inactive: 0.067
scaled lipid accumulation score (library stock concentration: 6.6 mM): inactive: 0.087
scaled lipid accumulation score [2]: inactive: ≤ 0 and inactive: 0.044

CCOP(=S)(OCC)Oc1cc(C)nc(C(C)C)n1
scaled lipid accumulation score [2]: inactive: ≤ 0

CNC(C)(C)Cc1ccccc1 [Mephentermine sulfate]
scaled lipid accumulation score (library stock concentration: 7.7 mM): inactive: 0.033
scaled lipid accumulation score [2]: inactive: 0.077

CNC(C)(C)Cc1ccccc1 [Mephentermine hemisulfate]
scaled lipid accumulation score: inactive: ≤ 0

CNC(Cc1c[nH]c2ccccc12)C(=O)O (configuration not stated) [Abrine (l)]
scaled lipid accumulation score [2]: inactive: ≤ 0

c1ccc(C2CC2)c(OCC2=NCCN2)c1 [Cirazoline]
scaled lipid accumulation score (library stock concentration: 23.1 mM): inactive: 0.536

c1ccc(C2CC2)c(OCC2=NCCN2)c1 [Cirazoline hydrochloride]
scaled lipid accumulation score [2]: inactive: 0.226 and inactive: 0.199

c1ccc(C2CC2)c(OCC2=NCCN2)c1 [Cirazoline HCl]
scaled lipid accumulation score (library stock concentration: 9.2 mM): inactive: 0.017

NCC(CP(=O)(O)O)c1ccc(Cl)cc1 (configuration not stated) [Phaclofen]
scaled lipid accumulation score [2]: inactive: 0.048

O=C(Cc1ccc(Cl)c(Cl)c1)N1CCCCC1CN1CCCC1 (configuration not stated)
scaled lipid accumulation score [2]: inactive: 0.581 and inactive: 0.566

CCC1=C[C@H]2CN3CCc4c([nH]c5ccccc45)[C@](C(=O)OC)(C2)[C@H]13 [Catharanthine]
scaled lipid accumulation score: inactive: 0.148
scaled lipid accumulation score [1]: inactive: 0.007
scaled lipid accumulation score [2]: inactive: 0.269

CC(C)NCC(O)c1ccc(N)c(C#N)c1 (configuration not stated) [Cimaterol]
scaled lipid accumulation score (library stock concentration: 9.1 mM): inactive: ≤ -0.006
scaled lipid accumulation score [2]: inactive: ≤ 0
scaled lipid accumulation score (library stock concentration: 22.8 mM): inactive: 0.279

CNCC(O)c1ccc(O)cc1 (configuration not stated) [Synephrine]
scaled lipid accumulation score [1]: inactive: 0.052
scaled lipid accumulation score [2]: inactive: ≤ 0

CNCC(O)c1ccc(O)cc1 (configuration not stated)
scaled lipid accumulation score [2]: inactive: ≤ 0

CNCC(O)c1ccc(O)cc1 (configuration not stated) [(?)-Synephrine]
scaled lipid accumulation score [2]: inactive: ≤ 0

CNCC(O)c1ccc(O)cc1 (configuration not stated) [Synephrine HCl]
scaled lipid accumulation score [1]: inactive: ≤ 0
scaled lipid accumulation score [2]: inactive: ≤ 0

CCOc1ccccc1-n1c(C(C)N2CCN(C(=O)COc3ccc(Cl)cc3)CC2)nc2ccccc2c1=O (configuration not stated) [Erastin]
scaled lipid accumulation score [1]: inactive: ≤ -0.009
scaled lipid accumulation score [2]: inactive: 0.473

C[C@]12CCC(=O)C=C1CC[C@@H]1[C@@H]2CC[C@@]2(C)[C@H]1CC[C@]2(C)O [Methyltestosterone]
scaled lipid accumulation score [2]: inactive: 0.073

C=CCN1CC[C@]23c4c5ccc(O)c4O[C@H]2/C(=N/N=C2\CC[C@@]4(O)[C@H]6Cc7ccc(O)c8c7[C@@]4(CCN6CC=C)[C@H]2O8)CC[C@@]3(O)[C@H]1C5 [Naloxonazine 2HCl]
scaled lipid accumulation score [3]: inactive: 0.144

CC(C)C[C@H]1C(=O)N2CCC[C@H]2[C@]2(O)O[C@](NC(=O)[C@@H]3C=C4c5cccc6[nH]c(Br)c(c56)C[C@H]4N(C)C3)(C(C)C)C(=O)N12 [Bromocriptine mesylate]
scaled lipid accumulation score [3]: inactive: ≤ -0.006
scaled lipid accumulation score [2]: inactive: ≤ 0 and inactive: 0.018

CC(C)C[C@H]1C(=O)N2CCC[C@H]2[C@]2(O)O[C@](NC(=O)[C@@H]3C=C4c5cccc6[nH]c(Br)c(c56)C[C@H]4N(C)C3)(C(C)C)C(=O)N12 [(+)-Bromocriptine methanesulfonate]
scaled lipid accumulation score [2]: inactive: 0.732

CC(C)C[C@H]1C(=O)N2CCC[C@H]2[C@]2(O)O[C@](NC(=O)[C@@H]3C=C4c5cccc6[nH]c(Br)c(c56)C[C@H]4N(C)C3)(C(C)C)C(=O)N12 [Bromocryptine mesylate]
scaled lipid accumulation score: inactive: 0.348

Reference: the supplement of paper PMC9135407
